From the supplement of paper PMC9912026
Further values from the same series stand in other lists.

Test system: A375
Assay: pERK immunofluorescence, normalised; higher = more ERK phosphorylation
Conditions: vemurafenib 1 µM, drug treatment time 24 h
Protocol: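 A375 or A375 CRISPRa-EGFR (A375_Cra_F7_5/13) cells were adapted for 24 h to a cobimetinib dose series, with or without 1 uM vemurafenib, then stimulated with EGF (100 ng/mL) or mock medium and fixed at the indicated times. pERK was measured by immunofluorescence as the population mean normalised to baseline, with the SD of technical replicates (n=2).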

O=C(c1ccc(F)c(F)c1Nc1ccc(I)cc1F)N1CC(O)([C@@H]2CCCCN2)C1 [cobimetinib]
pERK immunofluorescence
Conditions | cobimetinib 31.62 pM | cobimetinib 0.0001 µM | cobimetinib 0.000316228 µM | cobimetinib 0.001 µM | cobimetinib 0.003162278 µM | cobimetinib 0.01 µM | cobimetinib 0.031622777 µM | cobimetinib 0.1 µM | cobimetinib 0.316227766 µM | cobimetinib 1 µM
EGF 0 ng/mL, time after EGF/mock 0.083 h | 0.1497 | 0.149 | 0.151 | 0.1456 | 0.14 | 0.1333 | 0.1278 | 0.126 | 0.1264 | 0.128
EGF 0 ng/mL, time after EGF/mock 0.5 h | 0.1474 | 0.1461 | 0.1464 | 0.144 | 0.138 | 0.1353 | 0.1297 | 0.1273 | 0.12575 | 0.1268
EGF 0 ng/mL, time after EGF/mock 2 h | 0.139 | 0.1374 | 0.1398 | 0.136 | 0.1315 | 0.131 | 0.1256 | 0.12311 | 0.12274 | 0.1237
EGF 0 ng/mL, time after EGF/mock 8 h | 0.12 | 0.1206 | 0.1191 | 0.122 | 0.1137 | 0.113 | 0.10705 | 0.1046 | 0.1042 | 0.1046
EGF 0 ng/mL, time after EGF/mock 24 h | 0.107 | 0.1082 | 0.106 | 0.1066 | 0.106 | 0.108 | 0.107 | 0.105 | 0.09831 | 0.0983
EGF 100 ng/mL, time after EGF/mock 0.083 h | 1.64 | 1.65 | 1.6 | 1.58 | 1.64 | 1.59 | 1.38 | 0.844 | 0.188 | 0.1335
EGF 100 ng/mL, time after EGF/mock 0.5 h | 0.6651 | 0.654 | 0.6125 | 0.555 | 0.508 | 0.426 | 0.33 | 0.275 | 0.2886 | 0.1332
EGF 100 ng/mL, time after EGF/mock 2 h | 0.1938 | 0.19537 | 0.1902 | 0.1734 | 0.1506 | 0.13666 | 0.1275 | 0.125 | 0.123 | 0.1234
EGF 100 ng/mL, time after EGF/mock 8 h | 0.164 | 0.165 | 0.1586 | 0.153 | 0.142 | 0.128 | 0.115 | 0.1075 | 0.1043 | 0.10438
EGF 100 ng/mL, time after EGF/mock 24 h | 0.121 | 0.121 | 0.119 | 0.116 | 0.1125 | 0.1074 | 0.1101 | 0.106 | 0.1031 | 0.096898
